Source: the supplement of paper PMC3334620
Over roughly 33,000 sequences, “E-score (-0.5 to 0.5)” has its median near -0.01; the highest 2% begin near 0.26. This is one part of the list.

What follows are sequences tested against Ste12 (UniProt P13574) (assay: PBM E-score (8-mer binding enrichment) (E-score (-0.5 to 0.5)); higher = stronger / more preferred TF binding; most listed sequences are background and not binding sites). Conditions: protein concentration: 200 nM; construct: GST-DNA-binding domain.
Summary of the method: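 For each ungapped eight-base word taken together with its reverse complement, the Universal PBM Analysis Suite assigned an E-score. Binding data came from GST-tagged yeast transcription factors, applied at about 100-200 nM, on universal all-10-mer Agilent arrays made double-stranded by primer extension. Fluorescent anti-GST marked bound protein, and scans were normalised with masliner.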

Sequence | PBM E-score
CAATAGCC | -0.0829
CTAGGAGC | -0.17
CAAAGAGG | -0.135
GATTCATA | 0.00383
ACAATGCT | -0.122
CTGACACC | -0.0815
ACGGACCA | -0.109
ACATAGAG | -0.0386
CAGGAAGA | 0.0542
ACGTCTGA | -0.144
CGTGCCTC | -0.174
GAACTGAA | 0.221
GCACTTAC | -0.118
TAAGGACA | 0.0544
AGTCCGGC | -0.0592
ATCATATA | 0.15
CCACAATC | -0.0492
CTCCTATA | -0.217
GTGCTAAC | -0.0233
AATTTACC | 0.137
CTCCCGTA | -0.224
AGCCGAAA | 0.15
CGCTGACA | 0.0883
GGCTTGCA | -0.00181
TGGATTAA | 0.123

Sequence | PBM E-score
CTAGTCAC | -0.108
CCGGGCTA | -0.208
GTAAGCAC | -0.0603
TACAAGAA | 0.187
AACGGTAA | -0.0226
ACTCCCGA | -0.281
GTAGGGTA | -0.158
GAAAGAAA | 0.297
GCTACTGA | 0.0417
CAGTGACC | -0.11
CCTGCAAA | -0.194
AGCTATCA | -0.0659
GTCCAGAC | -0.298
AGCAACAC | -0.0966
GGTCCACC | -0.217
CAGGGTAG | -0.114
AGTCTACG | -0.171
CCGCACAA | -0.00756
ATGCACCG | -0.132
AAAGAATT | 0.15
CTCGAATA | -0.0948
GAGTTGCA | -0.152
CTAAGGCA | 0.061
ACACGCGC | 0.0321
AATCGTAG | -0.0731

Sequence | PBM E-score
CGTCCCAC | 0.159
AGATTTAA | 0.0444
AAGGTAGA | 0.0315
ATACGTGC | 0.0112
AACTACCC | 0.033
CACAGGTG | -0.128
CTGCCCAA | -0.0559
GTTGACAA | 0.132
CGCTTCCC | 0.00746
TAGTAGCA | 0.119
AAAATCTG | 0.193
AAAGCACC | -0.00596
ATCTGTGA | -0.044
CGTATGAG | 0.0322
ATCTCCAG | 0.0508
GTGGCTCA | -0.205
CAACCATG | 0.0467
AGCTTGAG | -0.164
CCGCGGCA | 0.175
GGTTCCTA | -0.177
ACAAGAGG | -0.0964
CAAGTCAA | -0.117
ACAGTCCA | -0.0442
TAATGCTA | -0.00558
GATGGGCA | -0.0542

Sequence | PBM E-score
CATCGATC | -0.149
CAGACGCA | 0.0344
CGGTAACG | -0.141
GGCGAGCC | -0.206
CGGCCTAA | 0.0279
CTAGCGAA | -0.222
AGATGAAA | 0.39
CGCCCCGA | 0.247
AGGTTAAG | -0.0346
CCCCAACA | -0.0382
CCTGAAGG | -0.184
GCACAAAC | -0.0245
GATGGGAA | 0.0192
CAGGCCTA | -0.0237
CCTCAGAA | 0.0556
CACTGATA | 0.092
ACCTACGA | -0.0389
CCAGTCGC | -0.1
AGTGCCGC | -0.0644
ATCGATGA | 0.0661
CCTCTCCC | 0.0198
AGAGTTCG | 0.0764
GTGACGTA | 0.00924
AGTTCCAG | 0.115
CGTAAGGA | -0.0644

Sequence | PBM E-score
AATTCAAG | 0.0152
ACTTGGGA | -0.137
GCTCAAAA | 0.159
CTCTATCC | -0.0963
CTTGCTCC | -0.112
GTCGACTA | -0.0061
GGTTCTAC | -0.0498
ATACCACC | 0.0538
CATGCTAG | -0.12
CATATGTC | -0.184
ATAAGATG | 0.224
GTATTAGA | 0.22
GCGGAGCC | -0.102
GGCTCACC | -0.244
TGCAACAA | 0.052
ATCGGGCA | -0.0312
TCAAACCA | 0.278
ACCAGCAG | -0.0588
CACTCTAC | 0.0303
CGGTGGTC | 0.00929
ACATTCAT | 0.117
AGCCAGGA | -0.0688
CGTAGTCC | -0.317
AAGGTGCA | 0.02
CTTGTGAA | 0.00063

Sequence | PBM E-score
AACGTCAA | -0.0262
AATATGGT | 0.165
ATAGGACC | -0.0552
AAACGCCA | 0.229
CTCAAGTC | -0.264
AACGGGGC | 0.0743
CCCTTATA | -0.0231
AAGGAAAG | -0.0602
CATGCTGC | -0.155
CTGATAGA | 0.156
ATTTTCTC | 0.0613
AGTAGCCA | -0.212
AGATTCGA | 0.169
AAAGACCT | 0.137
GATTGATA | 0.112
GGCATGCC | 0.0656
CTCATGCA | -0.0573
TTATTAAA | 0.321
GTGAAGCA | -0.135
GCCAAAGA | -0.0779
AGAGCGGC | -0.0499
ATATGATC | 0.162
ATTGCCAA | 0.0958
CATAGGGC | 0.0363
GACGGGTA | -0.203

Sequence | PBM E-score
ACAGGCAA | -0.0909
CATTCAGG | -0.0953
AATGTGGA | 0.0541
GTAGACAC | -0.173
CAAGAGCG | 0.102
ACCGATGC | -0.0639
ATGACTAA | 0.1
CCTGGGGA | -0.15
CGGTGTGA | 0.105
GAATGCGC | -0.0698
CAGGGACC | -0.285
CGTCGTTC | 0.128
ACCAACCA | -0.026
ACAGGGAT | 0.0276
ATCGAAGC | 0.0146
CATGCGAG | -0.0124
GCTGAGCC | -0.0937
AGCTTCAG | -0.121
AAGAAAGG | 0.0192
AGAAAATG | 0.00032
GGTTGACA | 0.0819
ACATAACT | 0.203
CACACCGA | 0.0546
CAGGTAAA | 0.248
CCACCAAA | 0.208

Sequence | PBM E-score
ACCGTATG | -0.219
ACCAAGAT | -0.0289
AGTGAAGG | 0.0289
ACTCGGCG | 0.0508
CTTGCTAA | -0.141
CCATCTAG | -0.115
CGTTTACA | -0.129
GATACTGA | 0.0615
GCTGCTAC | -0.192
CCCATTAC | -0.0724
GGGCCGAC | -0.0218
CCGGGGCA | -0.0708
CCATTCAC | 0.0416
AAAACCCT | 0.213
CATGAGAA | 0.18
CCTGGGTA | -0.0661
CTTCCGTC | -0.0523
AGCCCCAT | -0.00504
CCATGGGA | 0.0303
GGATTACC | -0.0225
TGTGACAA | 0.246
GATAGGAA | -0.0153
ACTTCAGC | -0.18
CTGCAATA | 0.0764
GAGATACA | 0.198

Sequence | PBM E-score
AGGATCAG | -0.016
TTCCAGAA | 0.144
CTTACCCA | -0.0004
GACACGGA | -0.104
CCAATACG | -0.0466
AAGAAATT | 0.149
GACCTACA | -0.161
AGAACGCT | -0.199
AAGCGTGG | -0.0252
CAGCGGGG | -0.0923
GATACAAA | 0.134
AAAGACGT | -0.0117
CATGGTAG | -0.0843
CGTATCAC | 0.113
CATTGTAC | -0.18
AAAACGGA | 0.273
ATCCTAAG | -0.0279
GTTTCCTA | -0.0316
ACAGCAAC | 0.0197
